Reference: the supplement of paper PMC9334596
Several values for one entry are separate records, joined by “and”; a condition that tells them apart may be missing. Equal values may be shown once. In all, about 5,300 compounds were measured (“PER2::LUC luminescence relative to vehicle control”: median about 0.96, highest 2% from about 1.3 on). The list shows a part of the results.

Test system: mPer2Luc MEF
Test: PER2::LUC luminescence relative to vehicle control (fold of vehicle); higher = higher PER2::LUC reporter signal
Conditions: 10 µM
Procedure, shortened: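 The value is PER2::LUC luminescence expressed as fold of vehicle control. Mouse embryonic fibroblasts carrying the mPer2Luc reporter were seeded at ~3000 cells per well in 384-well plates and grown in DMEM with 10% FBS at 37 °C and 5% CO2. Compounds from commercial libraries were added at 10 μM 48 h after seeding, and luminescence was read with the ONE-Glo luciferase assay system 24 h and 30 h after treatment, followed by an alamarBlue viability assay.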

SMILES | PER2::LUC luminescence (time after treatment 24 h) | PER2::LUC luminescence (time after treatment 30 h)
COc1cc(C(C)C)c(Oc2cnc(N)nc2N)cc1I | 1.06 | 1.05
Cc1cc2nc3c(=O)[nH]c(=O)nc-3n(C[C@H](O)[C@H](O)[C@H](O)CO)c2cc1C | 1.08 | 1
CCCOc1ccc2[nH]c(NC(=O)OC)nc2c1 | 0.469 | 0.639
COc1cn(-c2ccc(-n3cccn3)cc2F)nc(-c2ccnn2-c2ccccc2)c1=O | 0.925 | 0.973
Nc1ncnc2c1ncn2[C@@H]1O[C@H](CO)[C@@H](O)[C@@H]1O | 0.541 | 0.839
CC1CCN(CC[C@H]2CCCN2S(=O)(=O)c2cccc(O)c2)CC1 | 1.04 | 0.906
C[C@H]1C[C@H]2[C@@H]3CCC4=CC(=O)C=C[C@]4(C)[C@@]3(F)[C@@H](O)C[C@]2(C)[C@@]1(O)C(=O)COP(=O)(O)O | 0.673 | 0.992
CCCCC(CC)COC(=O)CC(C(=O)OCC(CC)CCCC)S(=O)(=O)O (centres undefined) | 0.908 | 1.06
CC(C)C[C@H](NC(=O)[C@H](Cc1ccccc1)NC(=O)CNC(=O)CNC(=O)[C@@H](N)Cc1ccc(O)cc1)C(=O)N[C@@H](CCCNC(=N)N)C(=O)N[C@@H](CCCNC(=N)N)C(=O)N[C@@H](CCC(N)=O)C(=O)N[C@@H](Cc1ccccc1)C(=O)N[C@@H](CCCCN)C(=O)N[C@H](C(=O)N[C@H](C(=O)N[C@H](C(=O)O)[C@@H](C)O)C(C)C)C(C)C | 1.08 | 0.945
NC[C@@H]1O[C@H](C23CC4CC(CC(C4)C2)C3)Cc2c1ccc(O)c2O | 0.66 | 0.765
CC1OC2(CS1)CN1CCC2CC1 (centres undefined) | 1.08 | 0.989
CC[C@H](C)[C@H](N)C(=O)O | 0.96 | 0.942
C=CC(=O)Nc1cccc(Oc2nc(Nc3ccc(N4CCN(C)CC4)cc3)ncc2Cl)c1 | 1.09 | 1.05
C[C@@](Cc1ccc(O)c(O)c1)(NN)C(=O)O | 1.03 | 0.949
CCOc1nc2cccc(C(=O)O)c2n1Cc1ccc(-c2ccccc2-c2nnn[nH]2)cc1 | 0.879 | 0.756
O=c1[nH]cnc2nc[nH]c12 | 1.01 | 0.986
O=C(Nc1cccnc1)c1cc(-c2ccnc(F)c2)ccc1OCc1ccccc1 | 0.633 | 0.811
O=C(Nc1cccc(NC(=O)c2cccc(O)c2O)c1)c1cccc(O)c1O | 0.916 | 1.34
O=C(O)/C=C/C(O)c1ccc(Cl)cc1 (centres undefined) | 0.988 | 1.16
C[C@]12CCC(=O)C=C1CC[C@@H]1[C@@H]2CC[C@@]2(C)[C@H]1CC[C@]2(O)C(=O)CO | 0.614 and 0.571 | 0.803 and 0.71
COC(=O)C1=C(C)NC(C)=C(C(=O)OC(C)(C)CN(C)CCC(c2ccccc2)c2ccccc2)C1c1cccc([N+](=O)[O-])c1 (centres undefined) | 1.14 and 0.832 | 1.25 and 0.965
COc1ccccc1N1CCN(CCCNc2c(C)c(=O)n(C)c(=O)n2C)CC1 | 0.888 | 1.03
O=C1CC[C@@H](C(=O)N2CSC[C@H]2C(=O)O)N1 | 0.6 | 1.01
c1ccc(-c2ccc(C(c3ccccc3)n3ccnc3)cc2)cc1 (centres undefined) | 1.45 | 1.32
Oc1c(Cl)cc(Cl)c2cccnc12 | 1.02 and 1.17 | 0.763 and 1.04
COc1ccc2cc1Oc1ccc(cc1)C[C@H]1c3cc(c(OC)cc3CCN1C)Oc1c(OC)c(OC)c(OC)c3c1[C@H](C2)N(C)CC3 | 0.81 | 0.85

SMILES | PER2::LUC luminescence (time after treatment 24 h) | PER2::LUC luminescence (time after treatment 30 h)
COc1cc2ncnc(Nc3cccc(Br)c3)c2cc1OC | 0.863 and 0.79 and 0.783 | 0.772 and 0.745 and 0.656
CN(C)CCC(c1ccc(Br)cc1)c1ccccn1 (centres undefined) | 0.784 and 0.446 | 0.719 and 0.735
COc1ccc(Cl)cc1NC(=O)Nc1cc(C)nc2ccccc12 | 0.757 | 0.791
COc1cc(Nc2c(C#N)cnc3cc(OCCCN4CCN(C)CC4)c(OC)cc23)c(Cl)cc1Cl | 0.21 | 0.253
CCCCCCCCCC(=O)N[C@@H](Cc1c[nH]c2ccccc12)C(=O)N[C@H](CC(N)=O)C(=O)N[C@@H](CC(=O)O)C(=O)N[C@@H]1C(=O)NCC(=O)N[C@@H](CCCN)C(=O)N[C@@H](CC(=O)O)C(=O)N[C@H](C)C(=O)N[C@@H](CC(=O)O)C(=O)NCC(=O)N[C@H](CO)C(=O)N[C@@H]([C@H](C)CC(=O)O)C(=O)N[C@@H](CC(=O)c2ccccc2N)C(=O)O[C@@H]1C | 1.18 | 1.21
CC(C)=CC(=O)CCC(=O)N1CCN(Cc2cc3nc(-c4cccc5[nH]ncc45)nc(N4CCOCC4)c3s2)CC1 | 0.459 | 0.371
CC(=O)OC[C@H]1O[C@@H]([S-])[C@H](OC(C)=O)[C@@H](OC(C)=O)[C@@H]1OC(C)=O.CCP(CC)CC.[Au+] | 0.98 | 0.973
CCC1(c2ccccc2)C(=O)NCNC1=O | 1.02 | 0.925
COc1cc(-c2ccc(/N=N/c3ccc4c(S(=O)(=O)O)cc(S(=O)(=O)O)c(N)c4c3O)c(OC)c2)ccc1/N=N/c1ccc2c(S(=O)(=O)O)cc(S(=O)(=O)O)c(N)c2c1O | 1.05 | 0.978
CN(CCCNC(=O)c1ccc2nc3c(c(Cl)c2c1)CCCC3)Cc1ccccc1 | 0.848 | 0.958
N#Cc1ccc2c(c1)N(CCCN1CCC(O)CC1)c1ccccc1S2 | 0.876 | 0.828
CCCCc1oc2ccc(NS(C)(=O)=O)cc2c1C(=O)c1ccc(OCCCN(CCCC)CCCC)cc1 | 0.716 and 0.408 | 0.818 and 0.551
Cc1noc(-c2ccc(-c3ccc(CC(=O)O)cc3)cc2)c1NC(=O)OC(C)c1ccccc1Cl (centres undefined) | 1.1 | 1.12
CNCCc1cnc(CCC(c2ccccc2)c2ccccc2)[nH]1 | 0.778 | 0.595
CCN1CCN(Cc2ccc(NC(=O)Nc3ccc(Oc4cc(NC)ncn4)cc3)cc2C(F)(F)F)CC1 | 0.107 | 0.14
CCCCCCCCNc1cc(=O)[nH]c(=O)[nH]1 | 0.969 | 1.01
NC(Cn1ccc(=O)c(O)c1)C(=O)O (centres undefined) | 0.928 | 0.906
Cc1onc(-c2ccccc2)c1C(=O)N1CCN(c2ccc([N+](=O)[O-])cc2Cl)CC1 | 0.896 | 1.04
C=CC(=O)Nc1cccc(Sc2nc(Nc3ccc(N4CCN(C)CC4)cc3)ncc2Cl)c1 | 0.273 | 0.305
CC(C)NCC(O)COc1ccc(CC(N)=O)cc1 (centres undefined) | 1.26 | 1.06
Oc1cc2c(cc1O)C(c1ccccc1)CNCC2 (centres undefined) | 0.922 | 0.846
Cn1c(=O)c2c(ncn2CC2OCCO2)n(C)c1=O | 1.15 | 1.14
COc1ccc2cc1Oc1ccc(cc1)C[C@@H]1c3cc(c(OC)cc3CCN1C)Oc1c(OC)c(OC)cc3c1[C@H](C2)N(C)CC3 | 0.674 | 0.713
CC(=O)N(CC(O)CO)c1c(I)c(C(=O)NCCO)c(I)c(C(=O)NCC(O)CO)c1I (centres undefined) | 0.978 | 0.842
CN1CCN(CC(=O)N2c3ccccc3C(=O)Nc3cccnc32)CC1 | 1.05 and 1.11 | 1.03 and 1.1
Cc1ccc([C@@H]2O[C@H](CO)[C@@H](O)[C@H](O)[C@H]2O)cc1Cc1ccc(-c2ccc(F)cc2)s1 | 0.966 and 1.09 | 1.05 and 1.06

SMILES | PER2::LUC luminescence (time after treatment 24 h) | PER2::LUC luminescence (time after treatment 30 h)
CC(C)[C@@H](C)[C@@H](O)[C@H](O)[C@@H](C)[C@H]1CC[C@H]2[C@@H]3COC(=O)[C@H]4C[C@H](O)[C@H](O)C[C@]4(C)[C@H]3CC[C@]12C | 0.893 | 0.889
CC(C)(C)c1cc(C(C)(C)C)c(NC(=O)c2c[nH]c3ccccc3c2=O)cc1O | 1 and 0.883 | 1.03 and 0.962
O=C1c2c(O)cc(O)cc2O[C@H](c2ccc(O)c(O)c2)[C@H]1O (racemic) | 1.19 and 1.04 | 0.894 and 0.975
CC(C)NC[C@@H](C(=O)N1CCN(c2ncnc3c2[C@H](C)C[C@H]3O)CC1)c1ccc(Cl)cc1 | 0.633 | 0.642
COC(=O)Nc1nc2cc(Sc3ccccc3)ccc2[nH]1 | 0.804 | 0.97
CC(=O)N(CC(O)CO)c1c(I)c(C(=O)NCC(O)CO)c(I)c(C(=O)NCC(O)CO)c1I (centres undefined) | 0.697 | 0.785
CCCc1cc(C)[nH]c(=O)c1CNC(=O)c1cc(-c2ccnc(N3CCN(C)CC3)c2)cc2c1cnn2C(C)C | 1.06 | 1.06
CCc1cnc(N2CCC(c3nc(COc4ccc(-n5cnnn5)cc4)cs3)CC2)nc1 | 0.866 | 0.889
NC[C@H](O)c1ccc(O)c(O)c1 | 1.07 | 0.948 and 1.09
CCN(CC)CCNC(=O)c1ccc(N)cc1 | 1.11 | 1.27
CCCCCCOc1ccccc1C(N)=O | 1.33 | 1.53
c1ccc2c(c1)CC(N1CCN(c3cccc4c3OCCO4)CC1)C2 | 1.06 | 1.11
O=C(Oc1cc(O)cc2c1C[C@@H](OC(=O)c1cc(O)c(O)c(O)c1)[C@@H](c1cc(O)c(O)c(O)c1)O2)c1cc(O)c(O)c(O)c1 | 1.12 | 0.856
CCOC(=O)[C@@H](C)Oc1cccc2c(=O)n(CC(=O)Nc3ccc4c(c3)OCCO4)ccc12 | 1.04 | 0.843
O=C(O)C1=C(CSc2nnnn2CS(=O)(=O)O)CS[C@@H]2[C@H](NC(=O)[C@H](O)c3ccccc3)C(=O)N12 | 0.992 | 0.886
CC(C)CC(NC(=O)[C@H](C)N)C(=O)O (mixture of isomers) | 0.961 | 0.865
Cc1c(-c2ccc(O)cc2)n(Cc2ccc(OCCN3CCCCCC3)cc2)c2ccc(O)cc12 | 0.555 and 0.523 | 0.631 and 0.56
CCc1cc2c(cc1CC)CC(NC[C@H](O)c1ccc(O)c3[nH]c(=O)ccc13)C2 | 0.86 and 0.757 | 0.841 and 0.714
c1cc(CN2CCCCC2)cc(OCCCNc2nc3ccccc3s2)c1 | 0.859 and 0.687 | 0.827 and 0.781
COC(=O)C(O)c1ccccc1 (centres undefined) | 1.06 | 0.999
Cc1cccc(Oc2nc3c(C)cccn3c(=O)c2C=C(C#N)c2nc3ccccc3s2)c1 | 1 | 1.04
O=C(O)c1cccc(-c2noc(-c3ccccc3F)n2)c1 | 1.69 | 2.11
Nc1ccc(S(=O)(=O)Nc2nccs2)cc1 | 0.855 and 1.1 | 0.984 and 1.09
COC(=O)N[C@H](C(=O)NNC[C@H](O)[C@H](Cc1ccccc1)NC(=O)[C@@H](NC(=O)OC)C(C)(C)C)C(C)(C)C | 0.974 | 0.963
O=C1c2ccccc2C(=O)c2c(O)c(O)cc(O)c21 | 1.03 | 1
